# In publication PMC7819943, “Rice protein-binding microarrays: a tool to detect cis-acting elements near promoter regions in rice”:
# The list shows a part of the results.
# Molecular target: T1, OsWOX13 (Oryza sativa, UniProt Q5QMM3 1-267)
# T1 sequence: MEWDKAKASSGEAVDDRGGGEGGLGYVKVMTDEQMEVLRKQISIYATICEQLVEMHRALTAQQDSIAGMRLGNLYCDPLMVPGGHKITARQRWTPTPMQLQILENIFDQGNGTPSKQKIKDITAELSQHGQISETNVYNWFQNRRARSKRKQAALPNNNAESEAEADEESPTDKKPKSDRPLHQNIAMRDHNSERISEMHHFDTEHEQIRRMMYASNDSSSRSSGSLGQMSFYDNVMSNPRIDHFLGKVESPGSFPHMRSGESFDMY
# Experiment: protein-binding microarray (RPBM); PBS, 2% BSA, 51.3 ng/ul salmon testes DNA, 50 uM zinc acetate, 200 nM TF, 25 C, 1 h; high values mean tight binding
# Settings: protein: recombinant; tags: N-terminal polyhistidine and DsRed monomer fusion (pET32a); label: CyDye5-dUTP incorporated in the synthesized complementary strand; 3' TTTTT single-stranded linker to array surface; dsDNA, one strand shown
# Method in brief: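 In PBS with 2% BSA, salmon testes DNA and 50 µM zinc acetate, 200 nM protein was incubated on a custom Agilent array at 25 °C for 1 h and then washed off. The array had been made double-stranded by primer extension with Cy5-dUTP and blocked with 2% BSA. The proteins were transcription factors fused N-terminally to polyhistidine and DsRed, expressed in E. coli BL21-CodonPlus and purified on Ni–NTA. The binding signal is per-feature fluorescence intensity (arbitrary units) from an Axon 4000B scanner.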
row,Sequence,binding signal
1,GTTAACTTTTAAACATATATTATAACTATCAGTTTTGTTACGGAGTCACCTAGTGCAG,3620 fluorescence intensity (a.u.)
2,GGTAGATTGTACAGCGGTAAATTGGGTCGCAGGCGAACACCGGAGTCACCTAGTGCAG,16000 fluorescence intensity (a.u.)
3,TGGTGGTGGCTGGCGGCGGGGAGGATGAGAACGAGAGAAGCGGAGTCACCTAGTGCAG,3920 fluorescence intensity (a.u.)
4,CGATAGATTAGATCGAAGTAGAACAGCGGAGAAGGAGAGTCGGAGTCACCTAGTGCAG,9420 fluorescence intensity (a.u.)
5,CATTTGTTCATTGATTGTGATTTTGCAAAGTTTATTTGGACGGAGTCACCTAGTGCAG,19800 fluorescence intensity (a.u.)
6,CCGCAATCAAAATTTAAATTTTAAAACTTAACTTTATAGTCGGAGTCACCTAGTGCAG,40100 fluorescence intensity (a.u.)
7,CCAAGATTAGTAATTGATTGCACTCCTTCAAAATTATTCTCGGAGTCACCTAGTGCAG,43300 fluorescence intensity (a.u.)
8,TCCTAATGAACCAAGATTAGCTTCTCAGTACTGGTGTTTGCGGAGTCACCTAGTGCAG,6190 fluorescence intensity (a.u.)
9,TAGTCTGTCAAATTGGCCATCCATCTCCAGCACTGATACCCGGAGTCACCTAGTGCAG,5020 fluorescence intensity (a.u.)
10,CGCTAACATAATTGTTAGAAACATATGTACGGTGTGATTGCGGAGTCACCTAGTGCAG,46400 fluorescence intensity (a.u.)
11,CTTGGCTAATTTGTGTCTTTGGATGGAACAATATTGTCTCCGGAGTCACCTAGTGCAG,16000 fluorescence intensity (a.u.)
12,AGTTATTTCCTAATTGTATTTCTATATGAACTCTAGTCTCCGGAGTCACCTAGTGCAG,4070 fluorescence intensity (a.u.)
13,TTAAGCATAATTTAAATCTTATACGTTTACATAAAATTTTCGGAGTCACCTAGTGCAG,5680 fluorescence intensity (a.u.)
14,ATATCCCATCCAATCAAAATTGTTATGTTTTGAGAGAGAGCGGAGTCACCTAGTGCAG,10400 fluorescence intensity (a.u.)
15,ATGGGCTGATTGGGCTCAATGTTTGCGAGATCTCGATCAACGGAGTCACCTAGTGCAG,20800 fluorescence intensity (a.u.)
16,ATATAATGAAATTTCAGAGAGGGTGGACTGGGCTTTATAGCGGAGTCACCTAGTGCAG,6290 fluorescence intensity (a.u.)
17,TAAGGTGATTGTATTTATAGCTAATTATTCTTTCATTCGTCGGAGTCACCTAGTGCAG,19500 fluorescence intensity (a.u.)
18,CGAATCTAGATAAAGTCAATTAGACACCACTTAATAGACTCGGAGTCACCTAGTGCAG,5710 fluorescence intensity (a.u.)
19,TGCCAATTGCCAAATAATCTCATCACTGAATAACACGGAGCGGAGTCACCTAGTGCAG,4500 fluorescence intensity (a.u.)
20,GTTTGATTGCACATTATGTCCTTGGAGTTCTTCAACATAGCGGAGTCACCTAGTGCAG,55700 fluorescence intensity (a.u.)
21,CTATATTGAAAGTCACTGACATGTGGGCTAAGCATATAGCCGGAGTCACCTAGTGCAG,3180 fluorescence intensity (a.u.)

row,Sequence,binding signal
1,CCAATTAAGATTTCTAATATTATGATATGTCGCATCCGGTCGGAGTCACCTAGTGCAG,4340 fluorescence intensity (a.u.)
2,GATCCCAATTAACTCGTCACGTTAACTAAAATCAGACAATCGGAGTCACCTAGTGCAG,18100 fluorescence intensity (a.u.)
3,CTTGGTTGATTTTCATGTGTGGATCCATGGGGATGGTCATCGGAGTCACCTAGTGCAG,3440 fluorescence intensity (a.u.)
4,CAGGTAGGATTTGATTAATCATATTATTAGTTACAAATAACGGAGTCACCTAGTGCAG,12400 fluorescence intensity (a.u.)
5,TCACACCAAAATTGAAAATTTGATTGAAATTGGAATGATGCGGAGTCACCTAGTGCAG,26900 fluorescence intensity (a.u.)
6,AGCAGTAAATTACAAAACCCAAACGTATAAAATTCTCTTACGGAGTCACCTAGTGCAG,3720 fluorescence intensity (a.u.)
7,GGGGTAATTACTGCCTCGGATGATGGAAAATGCTTGATCGCGGAGTCACCTAGTGCAG,28600 fluorescence intensity (a.u.)
8,AACATGACTGCAATACCGGATTATCCAATGTCCGAGGGACCGGAGTCACCTAGTGCAG,10900 fluorescence intensity (a.u.)
9,GCAATAAATTACTGGGGTCAGTGGACGATGCCTCCCTTCCCGGAGTCACCTAGTGCAG,9380 fluorescence intensity (a.u.)
10,ACTATAAATGGGATTACTTTCCTTTGCTTAATAGTTCATGCGGAGTCACCTAGTGCAG,4040 fluorescence intensity (a.u.)
11,GATTACGATTATAACCTCAATTACTTATCAATGCCAAGAACGGAGTCACCTAGTGCAG,4270 fluorescence intensity (a.u.)
12,ATTAATTAATTAGTGATCATACATAATTGAGGTGATTTATCGGAGTCACCTAGTGCAG,65000 fluorescence intensity (a.u.)
13,AACCAGTTCAATCATCCAGTATACTTCCCATCCTCCTACTCGGAGTCACCTAGTGCAG,5200 fluorescence intensity (a.u.)
14,ATTAGTAATTGATATAGAGGTAGACAGAAGGACGGCACTACGGAGTCACCTAGTGCAG,32500 fluorescence intensity (a.u.)
15,CTTGCTGATTTCTGTTCCCTAAACCCCTCAAGCACTGCTGCGGAGTCACCTAGTGCAG,7470 fluorescence intensity (a.u.)
16,AAATCGGCGCAAATTGCTAATCATGTTGTACTGTAATATACGGAGTCACCTAGTGCAG,13000 fluorescence intensity (a.u.)
17,TGACCGGTGACAGGACAAATCACGGCACTAGACACCACCACGGAGTCACCTAGTGCAG,12700 fluorescence intensity (a.u.)
18,AAAGTTGATAATCACAATCAATTAGGCCCCTTTGCAATGCCGGAGTCACCTAGTGCAG,34300 fluorescence intensity (a.u.)
19,GATTAACTAGGAGTTGATTATAAGCTAAATCGGCTTTATTCGGAGTCACCTAGTGCAG,16000 fluorescence intensity (a.u.)
20,ATAAATAATGAAATGTTAAATTAGCCGTCCGGTTTCTCCACGGAGTCACCTAGTGCAG,23700 fluorescence intensity (a.u.)
21,GATCCATGAGATATGATCATCAATTAATACATGTGCTGATCGGAGTCACCTAGTGCAG,4010 fluorescence intensity (a.u.)
